Results: patent US6478984B1, “Liquid for evaporative cooling apparatus” (Fortum Oyj, priority 1997, dated 2002)

Experiments:
[1] = Freezing point of aqueous solutions (temperature at which first crystals appear); assay type: physicochemical; settings: aqueous solution, freezing point −15° C.
[2] = Kinematic viscosity of the liquids at the concentration corresponding to a freezing point of −15° C.; assay type: physicochemical; settings: concentration corresponding to freezing point −15° C.
rats = settings: oral; cited from earlier work

Row | Concentration corresponding to the freezing point of −15° C. [1] [% by weight] | Kinematic viscosity ([2]; 0° C.) [mm^2/s] | Kinematic viscosity ([2]; 20° C.) [mm^2/s] | Kinematic viscosity ([2]; −10° C.) [mm^2/s] | Kinematic viscosity ([2]; −15° C.) [mm^2/s] | SMILES | LD50 (rats) [mg/kg]
1 | 24.5 | 5.9 | 2.5 | 10.9 | 15.8 | CCO [Ethanol] | 
2 | 33 | 7.8 | 3.3 | 14.4 | 20 | CC(O)CO (stereo not shown) [Propylene glycol] | 
3 |  |  |  |  |  | C[N+](C)(C)CC(=O)O [Trimethyl glycine, trimethyl glycine] | 11179

Row | SMILES | Concentration corresponding to the freezing point of −15° C. [1] [% by weight] | Kinematic viscosity ([2]; 0° C.) [mm^2/s] | Kinematic viscosity ([2]; 20° C.) [mm^2/s] | Kinematic viscosity ([2]; −10° C.) [mm^2/s] | Kinematic viscosity ([2]; −15° C.) [mm^2/s] | LD50 (rats) [mg/kg]
4 | OCCO [Ethylene glycol] | 30.5 | 4.3 | 2.1 | 6.5 | 8.2 | 
